Binding data for one substance are collected here from PMC2946606.

Sequences of proteins named here, by UniProt entry; tags and fusion partners are left off. A change or cut given only in a name is not applied to a line headed by its entry. Residues count along the entry.
UniProt P03372: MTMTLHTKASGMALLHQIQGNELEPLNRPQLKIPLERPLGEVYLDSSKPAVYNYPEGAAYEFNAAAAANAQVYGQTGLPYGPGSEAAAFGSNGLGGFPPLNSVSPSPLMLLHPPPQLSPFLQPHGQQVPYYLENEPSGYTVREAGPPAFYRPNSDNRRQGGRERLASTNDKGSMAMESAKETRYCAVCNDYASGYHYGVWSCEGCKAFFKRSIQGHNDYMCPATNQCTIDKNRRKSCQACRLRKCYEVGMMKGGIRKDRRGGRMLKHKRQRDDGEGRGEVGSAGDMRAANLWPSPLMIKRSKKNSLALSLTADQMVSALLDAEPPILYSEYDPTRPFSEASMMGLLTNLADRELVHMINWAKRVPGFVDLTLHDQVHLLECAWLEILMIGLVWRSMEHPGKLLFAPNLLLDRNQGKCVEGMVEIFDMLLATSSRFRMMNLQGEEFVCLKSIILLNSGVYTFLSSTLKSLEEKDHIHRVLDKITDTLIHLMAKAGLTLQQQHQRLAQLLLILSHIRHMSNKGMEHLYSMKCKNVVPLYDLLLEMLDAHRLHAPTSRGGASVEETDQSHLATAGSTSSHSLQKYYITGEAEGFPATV
UniProt P37238: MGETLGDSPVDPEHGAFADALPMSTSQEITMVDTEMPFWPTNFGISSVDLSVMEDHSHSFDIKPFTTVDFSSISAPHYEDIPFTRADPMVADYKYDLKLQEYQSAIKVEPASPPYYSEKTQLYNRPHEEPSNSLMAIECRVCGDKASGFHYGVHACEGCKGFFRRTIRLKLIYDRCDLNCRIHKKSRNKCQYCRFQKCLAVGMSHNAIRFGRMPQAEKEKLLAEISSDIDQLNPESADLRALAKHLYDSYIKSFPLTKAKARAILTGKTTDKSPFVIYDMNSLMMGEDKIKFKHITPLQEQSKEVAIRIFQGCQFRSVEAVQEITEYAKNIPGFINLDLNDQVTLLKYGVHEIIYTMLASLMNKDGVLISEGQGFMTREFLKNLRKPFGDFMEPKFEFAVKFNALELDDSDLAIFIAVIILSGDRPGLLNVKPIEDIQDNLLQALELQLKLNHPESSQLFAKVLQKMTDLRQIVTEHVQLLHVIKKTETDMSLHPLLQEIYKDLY
UniProt P19793: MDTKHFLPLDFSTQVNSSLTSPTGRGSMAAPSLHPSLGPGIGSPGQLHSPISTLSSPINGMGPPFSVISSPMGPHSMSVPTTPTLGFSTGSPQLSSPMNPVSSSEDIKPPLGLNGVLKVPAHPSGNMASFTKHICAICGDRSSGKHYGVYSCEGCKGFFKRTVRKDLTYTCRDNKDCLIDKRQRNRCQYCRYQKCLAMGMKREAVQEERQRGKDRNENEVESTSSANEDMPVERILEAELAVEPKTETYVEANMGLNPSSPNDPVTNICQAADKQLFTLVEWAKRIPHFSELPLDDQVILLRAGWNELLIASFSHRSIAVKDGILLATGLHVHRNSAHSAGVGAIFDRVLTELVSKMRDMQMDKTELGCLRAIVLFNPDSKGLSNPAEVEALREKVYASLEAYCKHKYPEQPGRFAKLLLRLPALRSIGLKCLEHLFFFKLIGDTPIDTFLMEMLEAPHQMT
GST-Med1 fragment aa 740–860 (Q925J9, residues 740-860): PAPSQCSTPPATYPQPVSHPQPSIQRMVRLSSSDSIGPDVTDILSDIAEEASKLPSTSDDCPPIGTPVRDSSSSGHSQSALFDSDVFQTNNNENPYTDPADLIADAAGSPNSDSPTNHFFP
GST-Med1 fragment aa 1055–1130 (Q925J9, residues 1055-1130): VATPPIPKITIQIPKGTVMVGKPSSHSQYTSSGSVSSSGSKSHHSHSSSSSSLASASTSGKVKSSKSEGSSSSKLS
GST-Med1 fragment aa 1370–1470 (Q925J9, residues 1370-1470): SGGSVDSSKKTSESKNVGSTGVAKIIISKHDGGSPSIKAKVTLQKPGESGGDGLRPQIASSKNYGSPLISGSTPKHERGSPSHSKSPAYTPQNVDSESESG
GST-ΔPBP^1470–1570 (Q925J9, residues 1470-1570): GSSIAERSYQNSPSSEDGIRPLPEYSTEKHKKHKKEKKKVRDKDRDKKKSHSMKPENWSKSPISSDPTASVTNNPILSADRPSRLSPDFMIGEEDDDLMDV
UniProt Q92616: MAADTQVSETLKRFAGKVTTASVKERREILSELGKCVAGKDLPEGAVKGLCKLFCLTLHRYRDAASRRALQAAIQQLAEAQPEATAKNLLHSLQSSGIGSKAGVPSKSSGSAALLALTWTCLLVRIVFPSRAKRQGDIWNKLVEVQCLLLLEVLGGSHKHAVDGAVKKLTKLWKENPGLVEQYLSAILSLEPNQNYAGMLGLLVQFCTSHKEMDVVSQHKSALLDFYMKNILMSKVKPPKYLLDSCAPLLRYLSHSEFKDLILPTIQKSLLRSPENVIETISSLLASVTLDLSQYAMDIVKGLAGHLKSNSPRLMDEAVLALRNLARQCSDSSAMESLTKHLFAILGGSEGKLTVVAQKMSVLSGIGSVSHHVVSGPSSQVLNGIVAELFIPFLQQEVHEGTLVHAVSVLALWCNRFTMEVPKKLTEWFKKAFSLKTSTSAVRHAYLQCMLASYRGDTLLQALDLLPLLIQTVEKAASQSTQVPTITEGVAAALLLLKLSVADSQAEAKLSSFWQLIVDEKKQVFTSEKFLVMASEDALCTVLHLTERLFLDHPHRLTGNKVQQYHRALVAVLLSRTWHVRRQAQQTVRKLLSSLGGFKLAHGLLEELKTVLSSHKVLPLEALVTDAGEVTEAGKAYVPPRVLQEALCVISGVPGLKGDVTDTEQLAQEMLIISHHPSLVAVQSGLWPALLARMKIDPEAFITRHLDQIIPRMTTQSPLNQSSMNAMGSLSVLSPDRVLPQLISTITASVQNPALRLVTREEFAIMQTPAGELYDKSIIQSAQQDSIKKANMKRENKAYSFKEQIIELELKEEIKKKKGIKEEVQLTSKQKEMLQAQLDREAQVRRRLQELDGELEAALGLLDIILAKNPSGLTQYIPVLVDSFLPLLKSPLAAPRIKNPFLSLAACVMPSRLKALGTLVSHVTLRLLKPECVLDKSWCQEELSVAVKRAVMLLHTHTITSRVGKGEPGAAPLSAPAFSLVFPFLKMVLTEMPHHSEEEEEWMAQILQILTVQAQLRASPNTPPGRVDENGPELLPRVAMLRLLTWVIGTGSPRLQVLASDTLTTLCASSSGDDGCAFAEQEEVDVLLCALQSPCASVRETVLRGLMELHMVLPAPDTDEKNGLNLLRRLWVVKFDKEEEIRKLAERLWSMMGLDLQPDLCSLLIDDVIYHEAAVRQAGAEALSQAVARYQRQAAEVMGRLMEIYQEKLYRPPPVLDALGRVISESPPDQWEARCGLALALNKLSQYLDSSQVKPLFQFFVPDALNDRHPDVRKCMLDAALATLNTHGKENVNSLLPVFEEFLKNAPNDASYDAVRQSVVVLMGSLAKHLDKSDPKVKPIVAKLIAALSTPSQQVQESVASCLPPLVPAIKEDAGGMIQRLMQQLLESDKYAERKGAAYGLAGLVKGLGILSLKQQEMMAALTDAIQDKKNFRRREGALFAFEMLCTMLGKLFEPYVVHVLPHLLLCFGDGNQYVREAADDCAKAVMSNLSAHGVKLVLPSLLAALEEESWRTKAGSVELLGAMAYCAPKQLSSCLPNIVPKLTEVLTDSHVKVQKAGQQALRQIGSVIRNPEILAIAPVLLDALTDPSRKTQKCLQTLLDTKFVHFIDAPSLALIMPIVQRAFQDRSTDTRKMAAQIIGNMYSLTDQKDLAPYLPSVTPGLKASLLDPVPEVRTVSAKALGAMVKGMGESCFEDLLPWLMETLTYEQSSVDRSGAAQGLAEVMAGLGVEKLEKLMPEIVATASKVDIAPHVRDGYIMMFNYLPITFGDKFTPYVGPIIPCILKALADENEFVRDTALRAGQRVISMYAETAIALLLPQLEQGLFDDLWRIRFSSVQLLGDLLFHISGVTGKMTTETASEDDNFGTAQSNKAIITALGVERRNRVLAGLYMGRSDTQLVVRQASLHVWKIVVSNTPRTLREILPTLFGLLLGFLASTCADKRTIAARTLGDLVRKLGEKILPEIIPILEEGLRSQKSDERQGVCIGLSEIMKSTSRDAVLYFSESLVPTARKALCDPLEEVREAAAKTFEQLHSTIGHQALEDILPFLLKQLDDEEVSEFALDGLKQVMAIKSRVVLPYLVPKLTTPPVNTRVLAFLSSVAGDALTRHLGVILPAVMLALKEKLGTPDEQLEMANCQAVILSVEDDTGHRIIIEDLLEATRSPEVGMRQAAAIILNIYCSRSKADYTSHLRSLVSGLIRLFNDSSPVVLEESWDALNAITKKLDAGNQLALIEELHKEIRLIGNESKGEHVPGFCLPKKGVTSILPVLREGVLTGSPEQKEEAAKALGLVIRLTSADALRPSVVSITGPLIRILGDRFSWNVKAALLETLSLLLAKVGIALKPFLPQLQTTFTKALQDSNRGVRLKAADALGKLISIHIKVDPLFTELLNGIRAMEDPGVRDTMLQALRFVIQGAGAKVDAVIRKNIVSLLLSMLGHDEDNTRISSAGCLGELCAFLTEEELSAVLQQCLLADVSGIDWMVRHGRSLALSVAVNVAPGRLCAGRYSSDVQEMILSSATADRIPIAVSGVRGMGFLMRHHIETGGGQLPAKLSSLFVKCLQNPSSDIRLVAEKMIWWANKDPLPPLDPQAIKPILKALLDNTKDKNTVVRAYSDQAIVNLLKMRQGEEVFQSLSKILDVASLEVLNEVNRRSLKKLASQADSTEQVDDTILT

No constants are given. Whether binding was seen depends on the method and setting. Binding seen in cells or lysates may run through a third protein. Some binding calls cover weakened binding; strength is not graded here.

Among the targets are GST-ERα (UniProt P03372); GST-PPARγ (UniProt P37238); GST-RXRα (UniProt P19793); GST-ΔPBP^1470–1570 (UniProt Q925J9).
Common to all, as to experiment: pull-down; GST or GST-fusion protein on glutathione sepharose 4B beads, incubated with in vitro translated 35S-methionine PRIC295 or its fragments, 4°C, 2 hours, gentle shaker; washed, SDS-PAGE, autoradiography; nuclear receptors without and with receptor-specific ligand (10 μM to 100 μM); only the target purified
The target in test [1] is GST-Med1 fragment aa 1055–1130 (UniProt Q925J9).
Test [2] addresses GST-Med1 fragment aa 1370–1470 (UniProt Q925J9).
Test [3] has as its target GST-Med1 fragment aa 740–860 (UniProt Q925J9).

For “PRIC295 (PPARα-interacting cofactor 295), full-length, in vitro translated (from UniProt Q92616 1-2671)”, the binding entry in the test with GST-ERα was “binds”; in test [1], “no binding”; in test [2] it was “no binding”; in test [3], “no binding”; in the test with GST-PPARγ it was “binds”; in the test with GST-RXRα it was “binds”. Besides, the binding entry with GST-ΔPBP^1470–1570 is reported as “binds”.
